Results from the supplement of paper PMC3334620.
The full ranking holds about 33,000 sequences; the median of “E-score (-0.5 to 0.5)” is about -0.016, and the highest 2% start at about 0.31. The list shows a part of the results.

These sequences were tested against Cst6 (UniProt P40535) (assay: PBM E-score (8-mer binding enrichment) (E-score (-0.5 to 0.5)); higher = stronger / more preferred TF binding; most listed sequences are background and not binding sites). Settings: protein concentration: 200 nM; construct: GST-DNA-binding domain.
In short: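 Universal all-10-mer Agilent arrays, fresh or stripped once, were converted to double-stranded form by primer extension. GST-tagged yeast transcription factors from PURExpress in vitro transcription/translation, full-length or DNA-binding domain only, were applied at about 100-200 nM and detected with fluorescent anti-GST. After masliner normalisation, the Universal PBM Analysis Suite scored each ungapped eight-base word together with its reverse complement by E-score.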

First: CGGACATA
Second: ATACGGCC
The “PBM E-score” value of the first is lower: 0.0467 for the first, 0.138 for the second.

Compared with TAGAAAAA, AACTATGA is higher in “PBM E-score” value: 0.0827 for the first, 0.221 for the second.

Compared with GAACGTCC, CCATCGAC is lower in “PBM E-score” value: 0.0008 for the first, -0.185 for the second.

First: ATGGTAAC
Second: AGGATAAC
The “PBM E-score” value of the first is higher: 0.153 for the first, -0.0728 for the second.

First: ATCGATAC
Second: AGGCCATA
The “PBM E-score” value of the first is higher: 0.171 for the first, -0.286 for the second.

Going from ACTTAGTG to AGTGATGG, the “PBM E-score” value rises from -0.0595 to 0.0422.

Compared with CACCTGGG, AGCCACGA is higher in “PBM E-score” value: -0.147 for the first, -0.0963 for the second.

Going from GTTGGTTA to AGTCTTAT, the “PBM E-score” value falls from 0.00579 to -0.00794.

Compared with AGTTTACG, CTACGCAA is lower in “PBM E-score” value: 0.199 for the first, 0.119 for the second.

First: CCTAGCAG
Second: GACAGATA
The “PBM E-score” value of the first is lower: -0.268 for the first, 0.111 for the second.

Compared with GTCATTAA, CAGCTACG is lower in “PBM E-score” value: 0.394 for the first, -0.0432 for the second.

Compared with CATGCTTC, CGCGGTCC is lower in “PBM E-score” value: 0.121 for the first, -0.188 for the second.

Compared with AAATGAAC, CAACGGCA is lower in “PBM E-score” value: 0.104 for the first, 0.094 for the second.

First: GGCAGTTA
Second: GATCGCAA
The “PBM E-score” value of the first is lower: -0.00143 for the first, 0.184 for the second.

Going from GCCACGTA to GGGAAATA, the “PBM E-score” value falls from 0.196 to -0.0876.

Compared with CTATCTGC, CCCGCAGC is higher in “PBM E-score” value: -0.241 for the first, -0.23 for the second.

Going from ACAACAAA to CCTCGGCA, the “PBM E-score” value falls from 0.223 to 0.0288.

First: CTCTGGAA
Second: ACTACTTA
The “PBM E-score” value of the first is lower: -0.0613 for the first, 0.0673 for the second.

Going from TCCCGGGA to CGAGCAAA, the “PBM E-score” value rises from -0.12 to -0.115.

Going from AAACCGCG to CCGAGATA, the “PBM E-score” value falls from 0.141 to -0.0451.

Compared with GGCCAGAA, CGCTTCGA is lower in “PBM E-score” value: -0.0118 for the first, -0.201 for the second.

Going from CAGACGAA to AACGCGCG, the “PBM E-score” value falls from 0.188 to 0.16.

Going from CTCCGGAC to ACCGAGGC, the “PBM E-score” value falls from -0.223 to -0.279.

Compared with GACGGTCA, GGTCTCGA is lower in “PBM E-score” value: 0.128 for the first, -0.12 for the second.

First: ATGGAAAT
Second: GGCAGCGA
The “PBM E-score” value of the first is higher: 0.122 for the first, -0.175 for the second.

Compared with GGGATACA, CCCCTAGA is lower in “PBM E-score” value: -0.196 for the first, -0.271 for the second.

Compared with AGAAATCA, CCACACAC is lower in “PBM E-score” value: 0.226 for the first, -0.181 for the second.

Compared with GCGAGGAC, CGACGGAA is higher in “PBM E-score” value: -0.312 for the first, -0.188 for the second.

Going from GTCACAAC to AGTTCATA, the “PBM E-score” value falls from 0.267 to 0.0725.

First: CTTGCTTC
Second: AAGCACCG
The “PBM E-score” value of the first is higher: 0.0607 for the first, -0.284 for the second.

First: ATAGGGAT
Second: CACTGGAC
The “PBM E-score” value of the first is lower: -0.103 for the first, -0.0242 for the second.

Compared with GCGCCTGA, AGGGCATG is lower in “PBM E-score” value: 0.0826 for the first, -0.0674 for the second.

Compared with AGCCTACA, ACCGTGAA is higher in “PBM E-score” value: -0.074 for the first, -0.017 for the second.

Compared with GGGCCTGA, CACTCGCC is higher in “PBM E-score” value: -0.239 for the first, 0.0603 for the second.

Going from ACACGCTC to GGGGCGCA, the “PBM E-score” value falls from -0.0487 to -0.14.

Compared with ATCTAGCC, ACATTGAA is higher in “PBM E-score” value: -0.107 for the first, 0.111 for the second.

First: CAGACTCG
Second: ACCTCAGC
The “PBM E-score” value of the first is lower: -0.196 for the first, -0.0534 for the second.

Going from CTTGCCGA to ATTAGCTC, the “PBM E-score” value rises from -0.11 to 0.0684.

First: CCGCACCG
Second: ATAACCTA
The “PBM E-score” value of the first is higher: 0.171 for the first, 0.105 for the second.

Going from ATCTTCAA to AATATGAG, the “PBM E-score” value falls from 0.149 to 0.132.

First: AAGGAATG
Second: GACGAATA
The “PBM E-score” value of the first is lower: 0.00962 for the first, 0.197 for the second.

Going from CGTACAGA to AGTGCCAG, the “PBM E-score” value falls from 0.0955 to -0.249.

Compared with ACGTAGTA, ACGGGCGA is lower in “PBM E-score” value: 0.244 for the first, -0.255 for the second.

Going from ACTGATGG to ACAGGTGC, the “PBM E-score” value rises from -0.132 to -0.0896.

Going from CACGAAGA to ATGTCATC, the “PBM E-score” value rises from 0.165 to 0.432.

First: CAACAGCC
Second: CCGGTACA
The “PBM E-score” value of the first is higher: 0.153 for the first, -0.0357 for the second.

Going from CTAAGGTA to ACTTGTCC, the “PBM E-score” value falls from 0.104 to -0.0374.

Compared with ATTAGCGA, ATTACATC is higher in “PBM E-score” value: 0.0978 for the first, 0.433 for the second.

Going from CGGAGGCC to CACTGGCA, the “PBM E-score” value rises from -0.345 to -0.228.

First: CCAGCTCG
Second: TCATACAA
The “PBM E-score” value of the first is lower: -0.248 for the first, 0.163 for the second.

Compared with ATATTCTG, CTATTGAA is lower in “PBM E-score” value: 0.23 for the first, 0.117 for the second.

Going from AATACGTC to CTTACGCA, the “PBM E-score” value falls from 0.323 to 0.249.

Compared with AAGCATTC, ATTCCGAG is higher in “PBM E-score” value: 0.0269 for the first, 0.0472 for the second.

First: CGGGGACC
Second: CTAAGGAC
The “PBM E-score” value of the first is higher: -0.235 for the first, -0.288 for the second.

Going from TTAAGTAA to ATTTATGC, the “PBM E-score” value falls from 0.179 to 0.117.

First: GACAAAAC
Second: ACGCTTAG
The “PBM E-score” value of the first is higher: 0.166 for the first, 0.0269 for the second.

Compared with AGACTACA, AATCGTCT is higher in “PBM E-score” value: -0.158 for the first, 0.11 for the second.

First: CAGGTTCG
Second: AGTGTATG
The “PBM E-score” value of the first is lower: -0.0843 for the first, 0.132 for the second.

First: AGGCGTCA
Second: GAGAGACA
The “PBM E-score” value of the first is higher: 0.256 for the first, -0.217 for the second.

Compared with CGTAATCC, ACTGTACC is lower in “PBM E-score” value: 0.3 for the first, -0.163 for the second.

Compared with AGCCGCAG, GTCTGCAA is higher in “PBM E-score” value: -0.151 for the first, -0.0255 for the second.

First: AGGGGATC
Second: ATTGTCAG
The “PBM E-score” value of the first is lower: -0.214 for the first, 0.187 for the second.

Compared with AGCGACCC, AGATAAGG is higher in “PBM E-score” value: -0.207 for the first, 0.0246 for the second.

Compared with AGGTATAT, ACAAGCCT is lower in “PBM E-score” value: 0.158 for the first, -0.0781 for the second.

First: TAGTGACA
Second: GGTAGCTA
The “PBM E-score” value of the first is higher: 0.338 for the first, -0.169 for the second.

First: AAAAAGCT
Second: CTCACTAC
The “PBM E-score” value of the first is lower: -0.0599 for the first, -0.0184 for the second.

Compared with AATTAGAG, CCTCGTCA is higher in “PBM E-score” value: 0.153 for the first, 0.308 for the second.

First: ACTCAGTG
Second: CTAGTTGA
The “PBM E-score” value of the first is lower: -0.175 for the first, 0.11 for the second.

First: CCCTGTAA
Second: CAGCTTGA
The “PBM E-score” value of the first is lower: -0.0976 for the first, -0.0516 for the second.

Going from AGTCTAAG to GCAGTTCC, the “PBM E-score” value falls from 0.0832 to -0.193.

Going from AGTACATA to ATTCTCAA, the “PBM E-score” value rises from -0.0373 to 0.181.

Going from AGGTTAAA to CGAGGGCG, the “PBM E-score” value falls from -0.0484 to -0.195.

Compared with ACACAGAC, ATATATGG is higher in “PBM E-score” value: 0.0563 for the first, 0.228 for the second.

Going from ACCATATC to TCCTCAAA, the “PBM E-score” value rises from -0.0686 to -0.0326.

First: CGCTCCCC
Second: ACGATTCA
The “PBM E-score” value of the first is lower: -0.251 for the first, -0.00128 for the second.

First: AGGGTAAT
Second: GGCCGACC
The “PBM E-score” value of the first is higher: 0.0978 for the first, -0.336 for the second.

First: TATGCAAA
Second: AAATGCTA
The “PBM E-score” value of the first is lower: 0.00091 for the first, 0.0446 for the second.

Going from AACGGGCA to AGAATATA, the “PBM E-score” value rises from -0.155 to 0.176.

First: AATGCATC
Second: CTCTACGA
The “PBM E-score” value of the first is higher: 0.115 for the first, -0.095 for the second.

First: TACATAGA
Second: AGCCTCCG
The “PBM E-score” value of the first is higher: 0.0865 for the first, -0.245 for the second.

Compared with CCACGCTA, CAGTGTCA is higher in “PBM E-score” value: -0.102 for the first, 0.0419 for the second.

Compared with ACAGGTTG, CCGTTTCA is higher in “PBM E-score” value: -0.0827 for the first, 0.131 for the second.

Compared with GATTGGAA, AAGTCATA is higher in “PBM E-score” value: -0.0964 for the first, 0.283 for the second.

Compared with GATACTAA, GTCTCACA is lower in “PBM E-score” value: 0.133 for the first, 0.0607 for the second.

First: AGAGGGGA
Second: AACCGGCG
The “PBM E-score” value of the first is lower: -0.321 for the first, 0.0364 for the second.

Going from GCAACCGC to ATGGAAAG, the “PBM E-score” value rises from 0.00174 to 0.167.
